These results are taken from article PMC10726135.

This is one part of the list. At the low end of the ranking the order means little. Measured with an extract: partners may take part in the binding.

The target of this test is T1, HNF4alpha2 (COS-7 nuclear extract) (UniProt P41235).
T1 sequence: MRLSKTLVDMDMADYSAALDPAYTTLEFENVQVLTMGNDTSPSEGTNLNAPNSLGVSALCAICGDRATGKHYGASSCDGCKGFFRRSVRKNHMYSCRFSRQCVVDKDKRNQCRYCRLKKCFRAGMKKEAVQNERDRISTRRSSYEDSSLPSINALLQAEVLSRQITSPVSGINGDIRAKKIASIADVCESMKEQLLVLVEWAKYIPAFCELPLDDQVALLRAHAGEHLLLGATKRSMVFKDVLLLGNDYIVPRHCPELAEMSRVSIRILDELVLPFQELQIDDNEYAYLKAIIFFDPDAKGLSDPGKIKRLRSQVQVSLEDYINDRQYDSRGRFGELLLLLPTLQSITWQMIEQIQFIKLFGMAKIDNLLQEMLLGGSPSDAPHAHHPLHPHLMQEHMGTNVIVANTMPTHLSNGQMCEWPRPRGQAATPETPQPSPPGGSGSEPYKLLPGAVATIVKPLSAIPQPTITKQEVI
The experiment in a line: protein-binding microarray. Conditions: COS-7 nuclear extract on double-stranded Agilent 4x180k PBM; binding buffer, salt, pH and temperature not given; high values mean tight binding; double strand, one strand shown; sequences stand for … in …GCCTAGGGAGATTAGAGTATCGGTCGA
With CCTTAAGAGCAGTCTGCTCAAGTCTTTTAG, the binding signal (log2 normalized intensity) was -0.799. The result for GATAAGAACTGCAAGGCTAGAGATTCTCCC reads -1.18. On to GTTGGGCAAGACTCGTGAAAAGAGTGATCT, for which the binding signal (log2 normalized intensity) is 0.206. The result for GCCAGCAACGGTGAGTCAAGCACTTCTCAC reads -1.07. The result for GTTTTTCTTCAAGGAGGTGAACTTTGAGAC reads 6.13; that for CAAAACCAGTTTTTCCAGCAGCGGATCCAA, -1.08; that for TTTCTCAGCCCCATCCCCCAATACACACAC, 5.06.

Consider CTTAAATGAGATAAGATGAAGCTCTCAGAA, for which the binding signal (log2 normalized intensity) was -1.04. In the case of AACATGGATTTTGGAGCCAAACAGGTGTGG, the binding signal (log2 normalized intensity) turned out to be 1.06. The result for GTTTGCACAAAGGGTTATGGGAAGTGGGGT reads 1. Consider TCCAAAGGAGTGGTCCTGCTCAAAGGGGAA, for which the binding signal (log2 normalized intensity) is -1.12. For the sequence TGCCAAGTGATAAGGAACCTAGGAAATCAA, the binding signal (log2 normalized intensity) was -1.12. GTCTGCTATTATCATCTCTTGTCTGGAATA: the binding signal (log2 normalized intensity) was 1.29. As to GAGAAGTTGCTCTTTACACCATTGCAAGGA, the binding signal (log2 normalized intensity) is -0.941. On to ATTCAAAGCAGAGGTGACCCTTGCACTCAT, for which the binding signal (log2 normalized intensity) was found to be 6.29. In the case of CTTTGCCCTCCCTAAATCCAGAGGTATTTG, the binding signal (log2 normalized intensity) was 1.88. In the case of GTGGGAGGATCGCTTGAGCCTGGGAGGCAA, the binding signal (log2 normalized intensity) is -1.14. As to AGCAATACATTGAACTTTGAACACCTCTTC, the binding signal (log2 normalized intensity) is 5.41. Under CTTACCTGCCAAATATTGGGCAATGCTAGG stands -1.2; under CCTAGCCCTCTTTCAAAGACAAATATCGAC, -0.714. Under AGCAGCTACATAAGGGTAGAGACCTTTGTT stands 2.14; under ATGCAGCTAAAAGCAGCATCCCTGATAAAC, -1.07. The result for GAGCCTGGACACACGAATAATGGAGCTGAT reads -0.825; that for CAGGCCCTTCTACATGAGGAGTGAGAACAG, -1.2.

Regarding GGCTTCACAATTCCTAGCAATTCAAATTCT, the binding signal (log2 normalized intensity) was -1.03. Regarding GGATTAAGTGCATACTCAAAGAATTTAACA, the binding signal (log2 normalized intensity) was -1.07. The result for CTTATGCATAGATGTTTAGCTATCAGTGTT reads 1.55. Under TGTAGATAAACTGGAAAGGGCTTCAGAGTC stands 0.04; under CAGGAAGTTCCCACAGTCCTTAAGATCCAA, -1.07; under CCTTATCATCACATGTGCAAGGGCAGCTCC, 0.669.

On to AGGCTGGGTGATAAGAACACAAAAGCCTCT, for which the binding signal (log2 normalized intensity) was -1.09. Turning to GTTAAGTAACGTGTCAGAGGTCACTCAGCA, the binding signal (log2 normalized intensity) is 2.29. Under AAACTTATCTTGTGACCTTTGACTCATTAT stands 6.43; under ATAAAAGATTGCATCTGTTTTTATTTCCCC, 1.79. In the case of TCAGGCTGTGGTACGGAATCCAGGCCAACT, the binding signal (log2 normalized intensity) was -0.838. As for GAACCGTCGTAATGGCTAAGGGCATCTACT, the binding signal (log2 normalized intensity) was -1.13. The result for ATCCAAAGTTCATGGAAAGTTTCACTTTCT reads 0.643. In the case of CAAAATTTTAATTAGAACTGTAATTGAGTA, the binding signal (log2 normalized intensity) turned out to be 0.832. The result for GTTCCGACCTTAGTACTCTGCCATGTGCTA reads 1.82; that for TCCCGGGGAGTCCTGGGCGTTGCTCTCCCA, -1.16; that for GGGAGGAGGAGACAAAGGCCGCGCCCGCCC, -1.15. The result for GAGCCTGGGGTTCAGCCACACCAAGTCTGG reads -1.25; that for TCCAGATCAAGGATTTTTTCTTGGACTTTG, 5.42. The result for ATCTTTGCCCTTGAAGATACAGTTATGAAA reads 1.44; that for GTGCAAAGGCCTTAAAGTGTAAATATTTGA, 0.685. On to CAGAGCATTGTTTATTGTTGCTGATATAGA, for which the binding signal (log2 normalized intensity) came out at 1.33.

For the sequence AAGCAGTCTACACTAGGAGGAGGTCAAAGT, the binding signal (log2 normalized intensity) is 3.88. For the sequence TTCCCTTATCTTCTCCCCTGCCAAATCATG, the binding signal (log2 normalized intensity) stood at 2.6.

As to TGGTCAAAGGTCACCAGTGAGCCAAGGTAC, the binding signal (log2 normalized intensity) came out at 4.75. Under AAACTTCATGGCTTAAAACGACTGATTCTC stands -1.17. Under CTTTACTTATCCAAAGCTGCTGGGAGGTAG stands 0.725. With CCTGGTCAAAGTCAACTCCTCCAAGCCACC, the binding signal (log2 normalized intensity) came to 0.61. Under GAAGGACAAAGATCATAAATGCCTCCCCCT stands 4.54; under CAAAACTTTAGGACTTTGAACCTTGGGTCT, 7.13.

As for TTTATCCAGTTCTGTGTACAAAGCCCCATA, the binding signal (log2 normalized intensity) stood at 3.46. Under GGCCTCTCCTTCATCTTCAAAGCCAGCAAT stands 0.209.

Turning to CCCCACTTCCTGACTTGGCCTGAACCAGTT, the binding signal (log2 normalized intensity) came out at 0.163.

Regarding TTCAAGAAGACCTTTGCTCCACGTTCATAT, the binding signal (log2 normalized intensity) was found to be 3.39. Under TGGTTTTTCTGGGACCAAGGGTCAGTTCAT stands 3.42; under AAATGTAATCAGCAAGTTTTATATGAAAAC, -0.182; under GGACTCCAAGCCCCAAAAACTTGGACTCTA, 5.21. The result for TACCCAACTCATCAGTATTTGATGGTACAA reads 1.28; that for TATTGGATTCCCCAATGCAGTACTATGCAA, 1.54. The result for CAGGTGGGAGGGGTGGACTTTGGCTTTTCC reads 5.47; that for CTTAAAGGCCTGTGTCGATGTTAACGCTAA, -0.828.

Consider TACCTGATGAAGCAATAGGAATCACACAAC, for which the binding signal (log2 normalized intensity) was -1.12. Under GGTGGACATGGTCCAGTCACAGCAAAAGTA stands 0.248; under TTAGGCAAGCAAACTGCAAATACAGGTGAA, -1.07. Consider AGAGAGATAGCAAAATCAATAAATCACACG, for which the binding signal (log2 normalized intensity) is -1.04.

For GAAGACAGTTCAAATCCCTTCGGATGACTC, the binding signal (log2 normalized intensity) is -1.05.

As to AGCCTCTTGAGTAGCTGGGACTACAGGCAG, the binding signal (log2 normalized intensity) was -1.14. With AAGCCGAACGCTGGGGCAAAGGTTTCCTAA, the binding signal (log2 normalized intensity) amounted to 0.42.

On to TGTTTTACCAGGAAGGGCTTTATGACCAGT, for which the binding signal (log2 normalized intensity) was 1.44.
